Measured values taken from the supplement of paper PMC9151546.
Single values are uncertain, as repeats are few or missing.

How the values were obtained:
CHO-K1 [1] = experiment: micronucleus frequency (% of nucleated events); higher = more micronuclei (genotoxic)
CHO-K1 [2] = experiment: hypodiploid nuclei frequency (% of nucleated events); higher = more hypodiploid events (aneugenic)
Description: (§1)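 Flow-cytometric in vitro micronucleus assay (Litron MicroFlow) in CHO-K1 cells in 96-well plates, 19 concentrations (4.5-200 µM, n=1 per concentration). Without S9, cells were exposed for 24 h and sampled at 48 h. With Aroclor 1254-induced rat liver S9, cells were exposed for 3-4 h and sampled at 27-28 h. Read-outs are %MN and %hypodiploid nuclei relative to nucleated events, and relative survival as the nuclei-to-bead ratio versus the 1% DMSO vehicle control (x100).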

CHO-K1 [3] = experiment: relative survival (nuclei to bead ratio vs DMSO control) (% of vehicle control); higher = more surviving cells
Description: as §1
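For hypodiploid nuclei frequency (% of nucleated events) in this document: hypodiploid nuclei gated on a flow cytometer with 488 nm excitation after SYTOX Green staining, cultures at 37 °C, positive controls vinblastine without S9 and cyclophosphamide with S9.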
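For micronucleus frequency (% of nucleated events) in this document: cells lysed with nuclei stained by SYTOX Green, then micronucleus-gated events counted against nucleated events by flow cytometry with 488 nm excitation.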
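For relative survival (nuclei to bead ratio vs DMSO control) in this document: Lysed-cell nuclei stained with SYTOX Green and counted against counting beads by flow cytometry at 488 nm excitation, with vinblastine (no S9) and cyclophosphamide (plus S9) as positive controls.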

Nc1nc(Cl)nc2c1ncn2[C@H]1C[C@H](O)[C@@H](CO)O1 [Cladribine]
Conditions	hypodiploid nuclei frequency, CHO-K1 [2] [%]	micronucleus frequency, CHO-K1 [1] [%]	relative survival, CHO-K1 [3]
concentration: 4.5 (µM), S9 metabolic activation: with S9, exposure time: 3-4 hours	0.24	1.84	52.5
concentration: 4.5 (µM), S9 metabolic activation: without S9, exposure time: 24 hours	–	–	34.6
concentration: 5.63 (µM), S9 metabolic activation: with S9, exposure time: 3-4 hours	0.26	1.9	71
concentration: 5.63 (µM), S9 metabolic activation: without S9, exposure time: 24 hours	–	–	29.8
concentration: 7.04 (µM), S9 metabolic activation: with S9, exposure time: 3-4 hours	0.42	2.26	68.3
concentration: 7.04 (µM), S9 metabolic activation: without S9, exposure time: 24 hours	–	–	30.4
concentration: 8.8 (µM), S9 metabolic activation: with S9, exposure time: 3-4 hours	0.32	4.32	67
concentration: 8.8 (µM), S9 metabolic activation: without S9, exposure time: 24 hours	–	–	39.7
concentration: 11 (µM), S9 metabolic activation: with S9, exposure time: 3-4 hours	0.36	3.94	70.8
concentration: 11 (µM), S9 metabolic activation: without S9, exposure time: 24 hours	–	–	35.8
concentration: 13.7 (µM), S9 metabolic activation: with S9, exposure time: 3-4 hours	0.64	6.82	54
concentration: 13.7 (µM), S9 metabolic activation: without S9, exposure time: 24 hours	–	–	35.9
concentration: 17.2 (µM), S9 metabolic activation: with S9, exposure time: 3-4 hours	0.67	9.11	46.1
concentration: 17.2 (µM), S9 metabolic activation: without S9, exposure time: 24 hours	–	–	36.5
concentration: 21.5 (µM), S9 metabolic activation: with S9, exposure time: 3-4 hours	0.92	8.98	54.4
concentration: 21.5 (µM), S9 metabolic activation: without S9, exposure time: 24 hours	–	–	33.9
concentration: 26.8 (µM), S9 metabolic activation: with S9, exposure time: 3-4 hours	0.64	8.74	49.9
concentration: 26.8 (µM), S9 metabolic activation: without S9, exposure time: 24 hours	–	–	36.5
concentration: 33.6 (µM), S9 metabolic activation: with S9, exposure time: 3-4 hours	1.01	9.83	45.5
concentration: 33.6 (µM), S9 metabolic activation: without S9, exposure time: 24 hours	–	–	35.1
concentration: 41.9 (µM), S9 metabolic activation: with S9, exposure time: 3-4 hours	–	–	39.8
concentration: 41.9 (µM), S9 metabolic activation: without S9, exposure time: 24 hours	–	–	34.2
concentration: 52.4 (µM), S9 metabolic activation: with S9, exposure time: 3-4 hours	–	–	35.7
concentration: 52.4 (µM), S9 metabolic activation: without S9, exposure time: 24 hours	–	–	34
concentration: 65.5 (µM), S9 metabolic activation: with S9, exposure time: 3-4 hours	–	–	38.1
concentration: 65.5 (µM), S9 metabolic activation: without S9, exposure time: 24 hours	–	–	35.7
concentration: 81.9 (µM), S9 metabolic activation: with S9, exposure time: 3-4 hours	0.38	5.92	41.6
concentration: 81.9 (µM), S9 metabolic activation: without S9, exposure time: 24 hours	1	3.54	41.4
concentration: 102 (µM), S9 metabolic activation: with S9, exposure time: 3-4 hours	0.54	6.31	47.5
concentration: 102 (µM), S9 metabolic activation: without S9, exposure time: 24 hours	0.93	3.17	40.2
concentration: 128 (µM), S9 metabolic activation: with S9, exposure time: 3-4 hours	–	–	35.2
concentration: 128 (µM), S9 metabolic activation: without S9, exposure time: 24 hours	–	–	39.6
concentration: 160 (µM), S9 metabolic activation: with S9, exposure time: 3-4 hours	–	–	39.4
concentration: 160 (µM), S9 metabolic activation: without S9, exposure time: 24 hours	–	–	39.2
concentration: 200 (µM), S9 metabolic activation: with S9, exposure time: 3-4 hours	0.54	3.88	54.1
concentration: 200 (µM), S9 metabolic activation: without S9, exposure time: 24 hours	–	–	33

Oc1ccc(Cl)cc1Cc1ccccc1 [Clorophene]
Conditions	hypodiploid nuclei frequency, CHO-K1 [2] [%]	micronucleus frequency, CHO-K1 [1] [%]	relative survival, CHO-K1 [3]
concentration: 4.46 (µM), S9 metabolic activation: with S9, exposure time: 3-4 hours	0.16	1.38	181
concentration: 4.46 (µM), S9 metabolic activation: without S9, exposure time: 24 hours	0.6	1.98	109
concentration: 5.57 (µM), S9 metabolic activation: with S9, exposure time: 3-4 hours	0.16	1.34	144
concentration: 5.57 (µM), S9 metabolic activation: without S9, exposure time: 24 hours	0.48	2.12	117
concentration: 6.97 (µM), S9 metabolic activation: with S9, exposure time: 3-4 hours	0.28	1.8	142
concentration: 6.97 (µM), S9 metabolic activation: without S9, exposure time: 24 hours	0.72	1.98	100
concentration: 8.71 (µM), S9 metabolic activation: with S9, exposure time: 3-4 hours	0.16	1.3	133
concentration: 8.71 (µM), S9 metabolic activation: without S9, exposure time: 24 hours	0.48	1.88	97.1
concentration: 10.9 (µM), S9 metabolic activation: with S9, exposure time: 3-4 hours	0.2	1.64	112
concentration: 10.9 (µM), S9 metabolic activation: without S9, exposure time: 24 hours	0.64	2.08	107
concentration: 13.6 (µM), S9 metabolic activation: with S9, exposure time: 3-4 hours	0.24	1.32	147
concentration: 13.6 (µM), S9 metabolic activation: without S9, exposure time: 24 hours	0.76	2.46	90.4
concentration: 17 (µM), S9 metabolic activation: with S9, exposure time: 3-4 hours	0.16	1.68	120
concentration: 17 (µM), S9 metabolic activation: without S9, exposure time: 24 hours	0.88	2.42	99
concentration: 21.3 (µM), S9 metabolic activation: with S9, exposure time: 3-4 hours	0.18	1.56	111
concentration: 21.3 (µM), S9 metabolic activation: without S9, exposure time: 24 hours	0.6	2.94	99.9
concentration: 26.6 (µM), S9 metabolic activation: with S9, exposure time: 3-4 hours	0.44	1.84	174
concentration: 26.6 (µM), S9 metabolic activation: without S9, exposure time: 24 hours	0.9	1.22	87.4
concentration: 33.2 (µM), S9 metabolic activation: with S9, exposure time: 3-4 hours	0.36	1.52	154
concentration: 33.2 (µM), S9 metabolic activation: without S9, exposure time: 24 hours	0.5	2.02	99
concentration: 41.5 (µM), S9 metabolic activation: with S9, exposure time: 3-4 hours	0.34	1.6	107
concentration: 41.5 (µM), S9 metabolic activation: without S9, exposure time: 24 hours	0.68	1.58	79.1
concentration: 51.9 (µM), S9 metabolic activation: with S9, exposure time: 3-4 hours	0.44	2.32	95.9
concentration: 51.9 (µM), S9 metabolic activation: without S9, exposure time: 24 hours	0.78	1.34	76.5
concentration: 64.9 (µM), S9 metabolic activation: with S9, exposure time: 3-4 hours	0.26	2.06	112
concentration: 64.9 (µM), S9 metabolic activation: without S9, exposure time: 24 hours	0.86	1.62	65.9
concentration: 81.1 (µM), S9 metabolic activation: with S9, exposure time: 3-4 hours	0.24	2.16	75
concentration: 81.1 (µM), S9 metabolic activation: without S9, exposure time: 24 hours	1.06	1.06	60.4
concentration: 101 (µM), S9 metabolic activation: with S9, exposure time: 3-4 hours	0.32	1.7	79.2
concentration: 101 (µM), S9 metabolic activation: without S9, exposure time: 24 hours	1.1	1.76	58.7
concentration: 127 (µM), S9 metabolic activation: with S9, exposure time: 3-4 hours	–	–	20
concentration: 127 (µM), S9 metabolic activation: without S9, exposure time: 24 hours	1.27	1.95	43.4
concentration: 158 (µM), S9 metabolic activation: with S9, exposure time: 3-4 hours	–	–	0.29
concentration: 158 (µM), S9 metabolic activation: without S9, exposure time: 24 hours	–	–	30.8
concentration: 198 (µM), S9 metabolic activation: without S9, exposure time: 24 hours	–	–	9.58
